Experimental data from PubChem BioAssay AID651820 (National Center for Advancing Translational Sciences (NCATS), 2012).
Out of some 340,000 compounds screened, about 12,000 (3.5%) were called active. The inconclusive results got no clear call from the source; some entries with a clear call stand among them for comparison. Calls follow the shape of the dose curve; as a rule, active = well fitted inhibition curve with a large enough effect; inconclusive = small, poorly fitted or top-dose-only effect, or another doubt; inactive = no such curve, though single readings can be large or run the other way. Potencies of inconclusive entries are left out as doubtful fits.

Experiment: qHTS Assay for Inhibitors of Hepatitis C Virus (HCV)
Conditions: Huh7.5.1 HCVcc-Cre (HCVcc is cell-culture hepatitis C virus) infection, luciferase reporter, 44 h; activity change, negative = inhibition: at 41.8 µM (top of the series) unless noted
Method in brief: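 Antiviral activity was scored by luciferase reporter output from cells infected with HCVcc-Cre (~0.5 moi) in presence of compound, 44 h infection period, cells seeded 1,000/well 4 h prior.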
% is scaled to controls: 0 for no effect and ±100 for the full control effect; potency is read from the fitted curve at half-maximal effect; tags tell the direction and shape of the fitted curve.

Row | Structure (SMILES) | Potency | activity change, negative = inhibition
1 | CCOc1cccc2cc(C(=O)N3CCc4ccccc4C3)c(=O)oc12 | inconclusive [inhibitor, full curve] | 
2 | COC(=O)C1=C(C)NC(=O)/C1=C\c1cc(C)n(-c2ccccc2F)c1C |  | inactive: -5.21%
3 | C=CCNCCOCCOc1ccc(C)cc1Br | inconclusive [inhibitor, single point] | 
4 | Cc1ccc(-n2c(C)cc(-c3csc(N)n3)c2C)cc1 | inconclusive [inhibitor, partial curve] | 
5 | CCn1cc([N+](=O)[O-])c(C(=O)Nc2ccn(C34CC5CC(CC(C5)C3)C4)n2)n1 |  | inactive: 9.5%
6 | COC(=O)N(c1ccc(OC)cc1)P1(=S)OCCC(C)O1 (stereo not drawn) | inconclusive [inhibitor, single point] | 
7 | O=C(c1cccc(Cl)c1)C1CCCN(Cc2cccc3cnccc23)C1 (stereo not drawn) | inconclusive [inhibitor, partial curve] | 
8 | C=Cn1cc[n+](CC(=O)c2ccc(-c3ccccc3)cc2)c1 | inconclusive [inhibitor, partial curve] | 
9 | Cc1ccccc1S(=O)(=O)Cc1ccc(C(=O)N2CCN(c3ncccn3)CC2)o1 | inconclusive [inhibitor, single point] | 
10 | CCn1c(=O)cc(OCC(=O)NCc2ccc(C)o2)c2ccccc21 | inconclusive [inhibitor, partial curve] | 
11 | CCCCC(=O)Nc1ccc(NC(=O)c2cc(OC)c(OC)c(OC)c2)cn1 | inconclusive [inhibitor, partial curve, poor fit] | 
12 | COc1cccc(CNn2c(-c3cccc(C)c3)nc3ccccc3c2=O)c1O | inconclusive [inhibitor, single point] | 
13 | CC(=O)n1cc(/C=N/NC(=O)c2ccc([N+](=O)[O-])cc2)c2ccccc21 | inconclusive [inhibitor, partial curve] | 
14 | O=C(C(Cc1ccccc1)n1cccc1)N1CCN(c2cccc(Cl)c2)CC1 (stereo not drawn) | inconclusive [inhibitor, single point] | 
15 | O=C(COc1ccc(Cl)cc1Cl)NCC1(N2CCOCC2)CCCCC1 | inconclusive [inhibitor, single point] | 
16 | Fc1ccc(Cn2nnnc2CN2CCC(n3nnc4cc(C(F)(F)F)ccc43)CC2)cc1 | inconclusive [inhibitor, single point] | 
17 | CC(C)c1ccc(/C=C2\SC(=S)N(CCC(=O)NCCCn3ccnc3)C2=O)cc1 | inconclusive [inhibitor, single point] | 
18 | C=CCN1C(=O)C2(OCCCO2)c2cc(Cl)ccc21 |  | inactive: -28.9%
19 | O=c1cc(-c2ccc(O)cc2)oc2cc(O)cc(O)c12 | inconclusive [inhibitor, single point] | 
20 | Cc1ccc(NC2=C/C(=N\S(=O)(=O)c3cccs3)c3ccccc3C2=O)c(C)c1 | active: 5.62 µM | 
21 | CC(C(=O)NCCSCc1cccc(Cl)c1)N(c1ccccc1)S(C)(=O)=O (stereo not drawn) |  | inactive: -19.6%
22 | CC(=O)COc1cc2c(-c3cc4ccccc4o3)cc(=O)oc2cc1C | inconclusive [inhibitor, partial curve] | 

Row | Structure (SMILES) | Potency | activity change, negative = inhibition
23 | COc1ccc(OCC(=O)N2N=C(C)CC2(O)C(F)(F)F)cc1 (stereo not drawn) |  | inactive: 12.5%
24 | COc1ccc(-c2cc(C(F)(F)F)n3nc(C(=O)N4CCC5(CC4)OCCO5)cc3n2)cc1OC | inconclusive [inhibitor, single point] | 
25 | COc1ccc(S(=O)(=O)Cc2ccc(C(=O)NC3CCCCCC3)o2)cc1 | inconclusive [inhibitor, single point] | 
26 | Cc1nn(-c2ccccc2)c2sc(C(=O)N(CC(=O)NC(C)(C)C)Cc3ccco3)cc12 | inconclusive [inhibitor, single point] | 
27 | COc1ccc(C(=O)Nc2ccc3c(c2)OCCO3)cc1Br | inconclusive [inhibitor, partial curve] | 
28 | CCN1C(=O)[C@H]2[C@H]3CN=C(SCc4ccc(C)cc4)N3[C@@](CC)(C(=O)OC)[C@H]2C1=O | inconclusive [inhibitor, single point] | 
29 | COc1ccccc1NS(=O)(=O)c1ccc(C)c(C(=O)N2CCCC2)c1 | inconclusive [inhibitor, single point] | 
30 | CSc1ccc(OC2CCCCC2NS(=O)(=O)c2ccc(Cl)cc2)cc1 (stereo not drawn) | inconclusive [inhibitor, single point] | 
31 | O=C(CSc1nnc2c(n1)[nH]c1ccccc12)Nc1ccc(N2CCOCC2)cc1 | inconclusive [inhibitor, single point] | 
32 | O=C1CCCC2=C1C(c1ccncc1)c1c(nc(SCc3ccccc3Cl)[nH]c1=O)N2 (stereo not drawn) |  | inactive: -4.83%
33 | O=C(N/N=C/c1cccnc1)c1ccccc1OCc1cccc(Br)c1 | inconclusive [inhibitor, partial curve] | 
34 | O=C(O)c1cc(/C=C/c2ccc(N3CCOCC3)c([N+](=O)[O-])c2)nc2ccccc12 |  | inactive: 1.28%
35 | COc1ccc(N2CC(C(=O)Nc3nnc(SCC(=O)NCC4CCCO4)s3)CC2=O)cc1 (stereo not drawn) |  | inactive: 0.262%
36 | O=C(c1cc2nc(-c3ccccc3)cc(-c3ccccc3)n2n1)N1CCN(C(=O)c2ccco2)CC1 | active: 14.1 µM | 
37 | COc1cc2c(cc1NC(=S)NC(=O)/C=C/c1ccco1)oc1ccccc12 | inconclusive [inhibitor, single point] | 
38 | CC(=O)Nc1cccc(NC(=O)c2ccccc2OCc2ccccc2)c1 | inconclusive [inhibitor, partial curve] | 
39 | COC(=O)c1ccc(NC(=O)CCN2CCN(CCC(=O)Nc3ccc(C(=O)OC)cc3)CC2)cc1 | inconclusive [inhibitor, full curve] | 
40 | Clc1ccccc1C1=Nn2c(nnc2-c2ccncc2)SC1 |  | inactive: -0.972%
41 | COc1cccc(C(=O)Cn2c(Br)nc3c2c(=O)n(C)c(=O)n3C)c1 |  | inactive: -19.7%
42 | CCN(Cc1ccccc1)C(=O)c1ccc(NC(=O)c2ccc(OC)cc2)cc1 | active: 12.6 µM | 
43 | O=C(CCn1c(=O)oc2cc(Cl)ccc21)Nc1ccc(N2CCOCC2)cc1 | inconclusive [inhibitor, single point] | 
